Source: the BET-seq Pho4 binding data (Le et al. 2018)
The other results are listed elsewhere or left out. These are noisy estimates, calculated here from bound and input reads.

What follows are sequences tested against T1, Pho4 (S. cerevisiae) (UniProt P07270) (assay: relative binding free energy (BET-seq); higher = weaker binding). Details: reference: library average.
T1 sequence: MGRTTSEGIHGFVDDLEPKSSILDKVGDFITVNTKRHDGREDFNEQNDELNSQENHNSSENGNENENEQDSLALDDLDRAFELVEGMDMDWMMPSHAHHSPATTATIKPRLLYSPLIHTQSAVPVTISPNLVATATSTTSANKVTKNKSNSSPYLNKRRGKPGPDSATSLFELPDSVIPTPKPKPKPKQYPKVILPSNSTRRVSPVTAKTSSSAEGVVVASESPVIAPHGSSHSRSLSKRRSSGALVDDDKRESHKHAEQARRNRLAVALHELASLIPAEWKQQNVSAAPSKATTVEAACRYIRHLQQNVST

Row | Sequence | relative binding free energy
1 | AGATGCACGTGCGGAT | -0.02 kcal/mol
2 | CTGATCACGTGGGTTA | -0.04 kcal/mol
3 | TCAATCACGTGTGGCT | 0.19 kcal/mol
4 | GGTGGCACGTGGCAAG | -0.07 kcal/mol
5 | ATTGTCACGTGTGTTA | -0.03 kcal/mol
6 | TGCCGCACGTGCGTGG | -0.04 kcal/mol
7 | TTAGGCACGTGTGGTG | -0.02 kcal/mol
8 | TAGAGCACGTGTAAGG | 0.05 kcal/mol
9 | CTAGGCACGTGCGGGG | -0.1 kcal/mol
10 | TTTTGCACGTGTTTGG | 0.09 kcal/mol
11 | GTTTGCACGTGATGCT | 0.18 kcal/mol
12 | TTAAACACGTGGGGTT | -0.15 kcal/mol
13 | AGGCTCACGTGCTGGG | 0.22 kcal/mol
14 | AAGGTCACGTGGCATT | 0.1 kcal/mol
15 | TGCGGCACGTGCGTTT | -0.14 kcal/mol
16 | AGTACCACGTGTGAGT | 0.06 kcal/mol
17 | TGGGGCACGTGGCTGC | -0.2 kcal/mol
18 | GTTAGCACGTGTATGG | 0.1 kcal/mol
19 | TTCCTCACGTGATGGG | 0.35 kcal/mol
20 | AAGTGCACGTGATAAT | 0.11 kcal/mol
21 | CTGTACACGTGGGGAG | 0 kcal/mol
22 | TTGGGCACGTGGTAGA | -0.04 kcal/mol
23 | GGGCACACGTGAAGGA | 0.38 kcal/mol
24 | TATAGCACGTGGGGGC | -0.24 kcal/mol
25 | TTGTGCACGTGCCTGG | -0.18 kcal/mol

Row | Sequence | relative binding free energy
26 | ATGGACACGTGCTGTG | -0.2 kcal/mol
27 | AGAAGCACGTGCGTGG | -0.1 kcal/mol
28 | TTTGTCACGTGAAAGA | 0.36 kcal/mol
29 | TTGTGCACGTGGAATG | 0.14 kcal/mol
30 | AGCTTCACGTGATTGG | 0.24 kcal/mol
31 | TATTACACGTGCGGGA | 0.03 kcal/mol
32 | GGGGACACGTGGTAAT | 0.07 kcal/mol
33 | ATAAGCACGTGGTCTT | -0.18 kcal/mol
34 | GGGTTCACGTGTAGTG | 0.34 kcal/mol
35 | GGATGCACGTGTATGT | 0.08 kcal/mol
36 | AGGAGCACGTGAATGG | 0.08 kcal/mol
37 | TGGTGCACGTGTGCTA | -0.04 kcal/mol
38 | CGTGGCACGTGCTTAG | -0.11 kcal/mol
39 | TTATACACGTGGGGGC | -0.04 kcal/mol
40 | TTAAGCACGTGATTAA | 0.04 kcal/mol
41 | GATTTCACGTGAAGAG | 0.5 kcal/mol
42 | TTGAGCACGTGACTGG | 0.08 kcal/mol
43 | GGGAACACGTGATGGT | 0.29 kcal/mol
44 | TCTTGCACGTGGTTGC | -0.1 kcal/mol
45 | CGGGTCACGTGGGTTT | 0.11 kcal/mol
46 | TACTGCACGTGAATGG | 0.19 kcal/mol
47 | TTTATCACGTGATGAG | 0.23 kcal/mol
48 | CAGGTCACGTGATTTA | 0.24 kcal/mol
49 | GATAACACGTGAGTGG | 0.27 kcal/mol
50 | AGTTCCACGTGTGCTT | 0.23 kcal/mol

Row | Sequence | relative binding free energy
51 | AAGGTCACGTGTTGTT | 0.06 kcal/mol
52 | TATTCCACGTGTGGTT | 0.09 kcal/mol
53 | ATTATCACGTGGTTTT | 0.22 kcal/mol
54 | AGGTGCACGTGGCGCG | -0.21 kcal/mol
55 | GGTATCACGTGCTTTT | 0.06 kcal/mol
56 | GGCGTCACGTGTTCTT | 0.24 kcal/mol
57 | TAATACACGTGTTTGC | 0.03 kcal/mol
58 | TGTGCCACGTGAGGGC | 0.14 kcal/mol
59 | TTAGTCACGTGAACGG | 0.26 kcal/mol
60 | ACTATCACGTGGGTAT | 0.01 kcal/mol
61 | GCAGTCACGTGGAGGG | 0.05 kcal/mol
62 | GGAGGCACGTGTGTAT | 0 kcal/mol
63 | ATGGTCACGTGCAAGT | 0.12 kcal/mol
64 | GAATGCACGTGTGGCG | -0.1 kcal/mol
65 | TCCGGCACGTGGATGG | -0.1 kcal/mol
66 | TTGTACACGTGGCGGG | 0.07 kcal/mol
67 | GGGCACACGTGGGGCT | -0.03 kcal/mol
68 | ATACTCACGTGTATGT | -0.02 kcal/mol
69 | CGATACACGTGGTGGT | 0.09 kcal/mol
70 | GGTCTCACGTGATGAG | 0.42 kcal/mol
71 | GACTACACGTGTGGGT | 0.34 kcal/mol
72 | TAAGCCACGTGTATTT | 0.15 kcal/mol
73 | CTAGTCACGTGGGATT | -0.1 kcal/mol
74 | GGAGCCACGTGTGGTA | -0.06 kcal/mol
75 | TTGTGCACGTGCTGCA | -0.06 kcal/mol

Row | Sequence | relative binding free energy
76 | AATGTCACGTGTATTA | 0.08 kcal/mol
77 | GGGTCCACGTGGTGGA | -0.01 kcal/mol
78 | ATTCTCACGTGTGTGT | 0.17 kcal/mol
79 | TTTGGCACGTGTTACA | -0.11 kcal/mol
80 | GTTGGCACGTGAATGA | 0.27 kcal/mol
81 | TAGGGCACGTGTTTTA | -0.09 kcal/mol
82 | TAAGTCACGTGTGGAC | 0.14 kcal/mol
83 | GGCGTCACGTGATGTT | 0.39 kcal/mol
84 | GTGTTCACGTGCTTGG | 0.17 kcal/mol
85 | TTGGACACGTGTTCTT | 0.08 kcal/mol
86 | ATTTTCACGTGGCCTT | 0.28 kcal/mol
87 | ATGTACACGTGGGGGG | -0.07 kcal/mol
88 | TATAGCACGTGCTTGT | -0.3 kcal/mol
89 | TTCAACACGTGGGTTG | -0.13 kcal/mol
90 | TTTGGCACGTGGGGAG | -0.27 kcal/mol
91 | GGGCTCACGTGCGGAT | 0.19 kcal/mol
92 | AGCAACACGTGTAGGG | 0.04 kcal/mol
93 | TGTGACACGTGAGAGG | 0.13 kcal/mol
94 | GGGGGCACGTGAGTAT | 0.27 kcal/mol
95 | CGTCTCACGTGTGGTA | 0.37 kcal/mol
96 | TTATACACGTGGGGAC | -0.13 kcal/mol
97 | CTTCGCACGTGGGATT | 0.03 kcal/mol
98 | ATTGTCACGTGGTGAC | -0.05 kcal/mol
99 | ATATACACGTGAAGTT | 0.19 kcal/mol
100 | GTTTGCACGTGTTGGA | 0.1 kcal/mol

Row | Sequence | relative binding free energy
101 | AGGCGCACGTGGTGAG | -0.22 kcal/mol
102 | CGGGTCACGTGACGGA | 0.33 kcal/mol
103 | ATTGACACGTGAGGCG | 0.18 kcal/mol
104 | GGTGTCACGTGATGAT | 0.27 kcal/mol
105 | ATAGTCACGTGGTTAG | -0.16 kcal/mol
106 | GGTGGCACGTGTAATC | 0.31 kcal/mol
107 | CGGAACACGTGTTTGG | -0.06 kcal/mol
108 | TATATCACGTGCCGTT | 0.18 kcal/mol
109 | GGAGACACGTGAGGTG | 0.3 kcal/mol
110 | CGGTTCACGTGGTATG | 0.18 kcal/mol
111 | CTGTGCACGTGAGTTT | 0.27 kcal/mol
112 | TAGGGCACGTGATGAT | 0.01 kcal/mol
113 | GCTGTCACGTGGTGTA | 0.02 kcal/mol
114 | TGAAGCACGTGGTAGG | -0.07 kcal/mol
115 | GATTTCACGTGGGGAT | 0.24 kcal/mol
116 | CGAATCACGTGTGGTG | 0.09 kcal/mol
117 | GTAGTCACGTGTTAGC | 0.11 kcal/mol
118 | TTAGACACGTGGGGTC | -0.16 kcal/mol
119 | TTATGCACGTGAAGTA | 0.13 kcal/mol
120 | GAAATCACGTGAGGGC | 0.59 kcal/mol
121 | GAGTACACGTGAAGTT | 0.43 kcal/mol
122 | ATTGTCACGTGATTTC | 0.19 kcal/mol
123 | TTCTGCACGTGGATAG | 0.12 kcal/mol
124 | TTTGGCACGTGATTCT | 0.14 kcal/mol
125 | TATTACACGTGGTAGC | 0.07 kcal/mol

Row | Sequence | relative binding free energy
126 | AATGGCACGTGATGAT | 0.02 kcal/mol
127 | CGTGTCACGTGAGTTA | 0.29 kcal/mol
128 | AGGTTCACGTGGATAG | 0.3 kcal/mol
129 | GTGTCCACGTGCGATG | 0.2 kcal/mol
130 | CAGGTCACGTGGCATG | 0.02 kcal/mol
131 | TTAAGCACGTGTTAGA | 0.02 kcal/mol
132 | TGTAACACGTGCGGAT | -0.03 kcal/mol
133 | TTGGGCACGTGGGGCG | -0.19 kcal/mol
134 | TGTTTCACGTGAAATA | 0.28 kcal/mol
135 | GATTCCACGTGGGGGA | 0.01 kcal/mol
136 | TGGAACACGTGTGTCA | 0.05 kcal/mol
137 | ACTGTCACGTGGGTAA | -0.08 kcal/mol
138 | AGCGTCACGTGAAGGA | 0.41 kcal/mol
139 | TGGATCACGTGTTAGA | 0.24 kcal/mol
140 | GGGTCCACGTGTGGAA | 0.1 kcal/mol
141 | GGTTACACGTGGGGGC | 0.16 kcal/mol
142 | CTGATCACGTGGGTGT | -0.06 kcal/mol
143 | GGGGGCACGTGGACCA | -0.07 kcal/mol
144 | TTACACACGTGGAGTG | -0.04 kcal/mol
145 | AGATGCACGTGTTTAA | 0.07 kcal/mol
146 | ACGGGCACGTGTGTGG | -0.15 kcal/mol
